Data on 172 sequences can be found in publication PMC6212790.

Some of the results follow. At the low end of the ranking, values are background and their order means little.

The target of the assay is T1, GST-Rok (full length) (UniProt O34857).
T1 sequence: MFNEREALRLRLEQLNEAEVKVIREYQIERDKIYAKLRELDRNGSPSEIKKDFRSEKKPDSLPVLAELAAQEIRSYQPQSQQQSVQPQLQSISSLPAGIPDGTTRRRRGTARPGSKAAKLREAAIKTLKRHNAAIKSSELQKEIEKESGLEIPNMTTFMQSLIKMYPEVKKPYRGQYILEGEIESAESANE
The assay is described as follows: protein binding microarray.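 Note: rank score from −0.5 (least bound) to 0.5 (best bound).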 The following applies: Rok is a gene silencer of Bacillus subtilis; high values mean tight binding; most listed sequences are background and not binding sites; double strand, one strand shown.
CGTTTGGC: the binding signal is -0.0418 E-score.

For the sequence ATACCCTA, the binding signal was 0.171 E-score. The same measure for GTTTCTAA: -0.0108 E-score; for CCCGAACA: -0.132 E-score; for GAAAGACC: -0.174 E-score.

ACAGTCGG: the binding signal is 0.0449 E-score. Consider CTCTGAGC, for which the binding signal was -0.24 E-score.

In the case of ATGTCTTC, the binding signal is -0.121 E-score. With CCAATCTC, the binding signal amounted to 0.147 E-score. ATATCAAT gave a binding signal of 0.327 E-score. Sequence AAGGAATA yielded a binding signal of -0.00782 E-score.

Sequence GAGACGCC gave a binding signal of -0.274 E-score. As for ACTATGAC, the figure is 0.186 E-score; as for CACCAGCG, -0.221 E-score.

AAGCTAAA had a binding signal of 0.14 E-score.

As for CATAGATA, the binding signal is 0.3 E-score. Regarding CAGGTCGG, the binding signal is -0.281 E-score. As to AGACCCAG, the binding signal was -0.256 E-score. AAATCCTG had a binding signal of 0.00397 E-score.

Sequence CAGAAGAG gave a binding signal of -0.296 E-score. CCGTCCAA registered a binding signal of -0.206 E-score.

CCCTGAGC displayed a binding signal of -0.339 E-score. In turn, CATAGGCA gave a binding signal of 0.0952 E-score.

CACATTGC showed a binding signal of -0.119 E-score. The same measure for AAGAAAAT: 0.0829 E-score. As for AACGCTGT, the binding signal was -0.174 E-score.

CAGCTTAG gave a binding signal of -0.0865 E-score. For AATTGACC, the binding signal is 0.049 E-score. Sequence CGCCGAGC came in with a binding signal of -0.259 E-score.

For the sequence CAAAGATA, the binding signal was 0.164 E-score.

The sequence GTTGTCAA showed a binding signal of 0.0198 E-score. The sequence CGGTACAA gave a binding signal of 0.0777 E-score. With ATTGCCCA, the binding signal was 0.0385 E-score. CCGTAACG: the binding signal was -0.215 E-score. For ATGGTTGG, the binding signal is -0.131 E-score. CACATGCA registered a binding signal of 0.162 E-score. Consider GAGCCCCC, for which the binding signal is -0.393 E-score. Take CATAGGCC: the binding signal is -0.348 E-score.

The sequence CAAACAAC gave a binding signal of 0.00627 E-score. As to AACCGGGC, the binding signal is -0.145 E-score.

Turning to CTTCTTGA, the binding signal was -0.132 E-score. CCGTGTCG: the binding signal is -0.229 E-score. As for ATGTTGGA, the figure is 0.082 E-score; as for GCTAGCCA, 0.0444 E-score; as for ATGATATA, 0.389 E-score. With ATGCTTAA, the binding signal was -0.0105 E-score. Take AAGTATGC: the binding signal stood at 0.156 E-score. As for AAACCCCC, the figure is -0.248 E-score. In turn, GGCTCTAC returned a binding signal of -0.0126 E-score.

AGGAGTGG had a binding signal of -0.282 E-score.

TCCCCGCA registered a binding signal of -0.367 E-score. In the case of GCACGAAA, the binding signal is -0.0319 E-score.

Turning to ACGAAAAC, the binding signal was -0.102 E-score. The same measure for TAAATCTA: 0.308 E-score; for CTCTCAAC: 0.0234 E-score; for ACGTATGG: 0.156 E-score. Regarding TCCTCCGA, the binding signal is -0.265 E-score.

The sequence GCCATTCC registered a binding signal of -0.144 E-score. On to GCCAAAGA, for which the binding signal was -0.214 E-score. Turning to GAAAGAAA, the binding signal was 0.0636 E-score. The sequence GAAGCTCA yielded a binding signal of -0.168 E-score. Regarding GACTGGAA, the binding signal came to 0.132 E-score. ACGGTAGT registered a binding signal of 0.373 E-score. As for CTGCTACA, the figure is 0.259 E-score. As for AATTAAAC, the figure is 0.0743 E-score; as for TAAATTAA, 0.28 E-score; as for AGGCGCCA, -0.0988 E-score. Regarding ACCCCAGC, the binding signal was -0.231 E-score. The sequence ACCGTGCC had a binding signal of -0.206 E-score. AAAGTTTG showed a binding signal of 0.113 E-score. Sequence TATTGTAA yielded a binding signal of 0.2 E-score. CGGAATCA returned a binding signal of 0.0438 E-score. CACAAAAA returned a binding signal of 0.0676 E-score.

Regarding CATACCTC, the binding signal was found to be 0.0284 E-score.

TGCTAGCA came in with a binding signal of 0.0889 E-score. The same measure for TAACAAGA: 0.167 E-score; for AGCGGACG: -0.0349 E-score; for AGTTACAC: 0.314 E-score.

Sequence CAGACAAC gave a binding signal of -0.0228 E-score. CCTGGTGA: the binding signal was -0.273 E-score. The same measure for AACGGTCT: -0.0396 E-score. As for ACCGTGCG, the binding signal is -0.127 E-score. In turn, ACAGTAAC came in with a binding signal of 0.293 E-score. The same measure for CGGGTCAC: -0.226 E-score.

Regarding CGCCTCAC, the binding signal was -0.0554 E-score. CCCCTTCG: the binding signal is -0.37 E-score.

Sequence AGGGCGTG returned a binding signal of -0.412 E-score.

Regarding GACTCAAC, the binding signal is -0.0551 E-score.

In the case of ACGGCCTA, the binding signal is -0.107 E-score. The same measure for AATGAGAC: -0.125 E-score.

On to ATGGGTTC, for which the binding signal came to 0.139 E-score.

CAGTACTC had a binding signal of 0.0775 E-score. In turn, GATCTGGC registered a binding signal of -0.134 E-score. Take TAGGTGAA: the binding signal was 0.142 E-score. AGCTCGAG displayed a binding signal of 0.116 E-score. For ACACTCTC, the binding signal amounted to 0.000652 E-score. ACTATGTG had a binding signal of 0.0606 E-score. For GAAACTGC, the binding signal was 0.0322 E-score. CTCGCAGA came in with a binding signal of -0.207 E-score. In turn, CAAGTAGG displayed a binding signal of 0.153 E-score.

On to CCTTGACA, for which the binding signal is -0.116 E-score. As for GTACATAC, the binding signal was determined as 0.28 E-score. As for CACCCTTA, the figure is -0.198 E-score. Turning to TGTGAACA, the binding signal was determined as 0.0178 E-score.

The sequence ACGATGGA displayed a binding signal of 0.131 E-score. In the case of AGGAATGG, the binding signal is -0.257 E-score. Consider TCGAGCAA, for which the binding signal came to 0.00787 E-score. As for ATACCGAC, the figure is 0.0836 E-score; as for GTATATTA, 0.391 E-score; as for GGCGAAGA, -0.0503 E-score. As for GCAGCTGC, the figure is -0.315 E-score; as for CCATCTCA, -0.304 E-score. Consider CTGGAGAC, for which the binding signal is -0.262 E-score. As to ATCAGAAG, the binding signal was -0.00319 E-score. The same measure for ATCCAGGG: -0.193 E-score; for ATGGCCCC: -0.255 E-score; for CTCTTAAA: -0.267 E-score.

Sequence GGGGGCCA came in with a binding signal of -0.405 E-score. On to GTGCTTGA, for which the binding signal stood at 0.0704 E-score. On to AACCAACT, for which the binding signal stood at 0.167 E-score.

AGTCACCA registered a binding signal of -0.0688 E-score. AGTTTTGA had a binding signal of 0.095 E-score. AATATTAG gave a binding signal of 0.193 E-score. Sequence ATACATCC registered a binding signal of 0.21 E-score. As for ATCACAAC, the figure is -0.0989 E-score; as for TCCGTAGA, 0.118 E-score. AACGCAGT had a binding signal of -0.0724 E-score.

AAAAGTGC registered a binding signal of -0.127 E-score.

Consider GTGTAAGA, for which the binding signal is -0.0311 E-score.

For the sequence AAAACACT, the binding signal was -0.0816 E-score. The same measure for GGGTTAAC: -0.137 E-score; for CTAATGAA: 0.0765 E-score; for AGTATCAA: 0.24 E-score. As to ATAAAAAC, the binding signal worked out at 0.266 E-score. CGGTAACA showed a binding signal of 0.204 E-score. The sequence ACGCGACC came in with a binding signal of -0.0602 E-score.

Turning to TAGTACGA, the binding signal amounted to 0.359 E-score.

AGCAGCAT: the binding signal was determined as 0.0714 E-score.

Consider CGCAGTTA, for which the binding signal was 0.078 E-score.

Sequence GAAGGCAC returned a binding signal of -0.194 E-score. In turn, AAGTTTGT came in with a binding signal of 0.0838 E-score.

As to CTCCGGGA, the binding signal was -0.304 E-score. As for ATTACGAC, the figure is 0.322 E-score. With CCCGAGAA, the binding signal is -0.115 E-score. With ATCTTACA, the binding signal came out at 0.0462 E-score.

The sequence AGTGGGGC gave a binding signal of -0.377 E-score. The sequence CACACCCA came in with a binding signal of -0.0805 E-score. ACGAGAGT had a binding signal of -0.182 E-score.

Sequence ATCCCGGG displayed a binding signal of -0.274 E-score. Regarding TCGCCAAA, the binding signal is -0.22 E-score.

In the case of GAGTGGCA, the binding signal is -0.2 E-score. As to CTCAACTC, the binding signal is -0.268 E-score. For the sequence ATCGGTAA, the binding signal came out at 0.198 E-score. In the case of AAGCGTCC, the binding signal was -0.273 E-score. In turn, TCCTTACA yielded a binding signal of -0.0266 E-score. As to CTTCACAC, the binding signal was found to be 0.0658 E-score. AATCATTG had a binding signal of 0.101 E-score. The same measure for AGTCAGAT: 0.00954 E-score; for ACAGGTGG: -0.232 E-score.

Regarding GCGGAGGA, the binding signal was -0.264 E-score. In the case of CCACGCAG, the binding signal was -0.274 E-score. AATACACG yielded a binding signal of 0.127 E-score. Sequence GGACCAAC yielded a binding signal of -0.146 E-score. Regarding CACTGCTA, the binding signal came out at 0.106 E-score. In turn, AAGAATCG had a binding signal of 0.0047 E-score. Sequence GGGAGCTA had a binding signal of -0.215 E-score. As for CGCTACGA, the figure is 0.0785 E-score. The sequence CGTGTCTC yielded a binding signal of 0.0308 E-score.

For GCCTTCCC, the binding signal is -0.391 E-score. In turn, GCGAATAC registered a binding signal of 0.0251 E-score. The same measure for AGACACGC: 0.0575 E-score. The sequence TCGATTAA gave a binding signal of 0.142 E-score.
